Experimental data taken from the supplement of paper PMC8728848.
This is one part of the list.

Legend:
Assay in all cases: glycan array binding signal (z-score within array); higher = stronger binding
Details in all cases: glycan notation: IUPAC condensed, linker removed
[1] = biological target: Neu5Ac(a2-3)Gal(b1-4)[Fuc(a1-3)]GlcNAc(b1-3)GalNAc
Summary of the method: (§1)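 The binding signal is a Z-score computed within each array and averaged over linkers. Arrays of the same protein sequence at different concentrations or buffers were also averaged together. Data originate from 3228 arrays in the Consortium for Functional Glycomics database, kept only where the protein sequence was available.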

[2] = biological target: Neu5Ac(a2-3)Gal(b1-4)[Fuc(a1-3)]GlcNAc(b1-6)[Gal(b1-3)]GalNAc
Summary of the method: as §1

[3] = biological target: Neu5Ac(a2-3)Gal(b1-4)[Fuc(a1-3)]GlcNAc(b1-6)[Neu5Ac(a2-3)Gal(b1-3)]GalNAc
Summary of the method: as §1

[4] = biological target: Neu5Ac(a2-3)Gal(b1-4)[Fuc(a1-3)]GlcNAc6S
Summary of the method: as §1

[5] = biological target: Neu5Ac(a2-3)Gal6S(b1-4)GlcNAc
Summary of the method: as §1

[6] = biological target: Neu5Ac(a2-3)Gal6S(b1-4)[Fuc(a1-3)]GlcNAc
Summary of the method: as §1

Neu5Ac(a2-3)GalNAc = biological target: Neu5Ac(a2-3)GalNAc
Summary of the method: as §1

[7] = biological target: Neu5Ac(a2-3)GalNAc(b1-4)GlcNAc
Summary of the method: as §1

[8] = biological target: Neu5Ac(a2-3)[GalNAc(b1-4)]Gal(b1-4)Glc
Summary of the method: as §1

[9] = biological target: Neu5Ac(a2-3)[GalNAc(b1-4)]Gal(b1-4)GlcNAc
Summary of the method: as §1

[10] = biological target: Neu5Ac(a2-3)[Neu5Ac(a2-6)]GalNAc
Summary of the method: as §1

Neu5Ac(a2-6)Gal = biological target: Neu5Ac(a2-6)Gal
Summary of the method: as §1

Neu5Ac(a2-6)Gal(b1-4)Glc = biological target: Neu5Ac(a2-6)Gal(b1-4)Glc
Summary of the method: as §1

[11] = biological target: Neu5Ac(a2-6)Gal(b1-4)GlcNAc
Summary of the method: as §1

[12] = biological target: Neu5Ac(a2-6)Gal(b1-4)GlcNAc(b1-2)Man(a1-3)Man(b1-4)GlcNAc(b1-4)GlcNAc
Summary of the method: as §1

[13] = biological target: Neu5Ac(a2-6)Gal(b1-4)GlcNAc(b1-2)Man(a1-3)[Gal(b1-4)GlcNAc(b1-2)Man(a1-6)]Man(b1-4)GlcNAc(b1-4)GlcNAc
Summary of the method: as §1

[14] = biological target: Neu5Ac(a2-6)Gal(b1-4)GlcNAc(b1-2)Man(a1-3)[GlcNAc(b1-2)Man(a1-6)]Man(b1-4)GlcNAc(b1-4)GlcNAc
Summary of the method: as §1

[15] = biological target: Neu5Ac(a2-6)Gal(b1-4)GlcNAc(b1-2)Man(a1-3)[GlcNAc(b1-2)Man(b1-4)GlcNAc(b1-2)Man(a1-6)]Man(b1-4)GlcNAc(b1-4)GlcNAc
Summary of the method: as §1

[16] = biological target: Neu5Ac(a2-6)Gal(b1-4)GlcNAc(b1-2)Man(a1-3)[Man(a1-6)]Man(b1-4)GlcNAc(b1-4)GlcNAc
Summary of the method: as §1

[17] = biological target: Neu5Ac(a2-6)Gal(b1-4)GlcNAc(b1-2)Man(a1-3)[Neu5Ac(a2-6)Gal(b1-4)GlcNAc(b1-2)Man(a1-6)]Man(b1-4)GlcNAc(b1-4)GlcNAc
Summary of the method: as §1

[18] = biological target: Neu5Ac(a2-6)Gal(b1-4)GlcNAc(b1-2)Man(a1-6)Man(b1-4)GlcNAc(b1-4)GlcNAc
Summary of the method: as §1

[19] = biological target: Neu5Ac(a2-6)Gal(b1-4)GlcNAc(b1-2)Man(a1-6)[Gal(b1-4)GlcNAc(b1-2)Man(a1-3)]Man(b1-4)GlcNAc(b1-4)GlcNAc
Summary of the method: as §1

[20] = biological target: Neu5Ac(a2-6)Gal(b1-4)GlcNAc(b1-2)Man(a1-6)[GlcNAc(b1-2)Man(a1-3)]Man(b1-4)GlcNAc(b1-4)GlcNAc
Summary of the method: as §1

[21] = biological target: Neu5Ac(a2-6)Gal(b1-4)GlcNAc(b1-2)Man(a1-6)[Man(a1-3)]Man(b1-4)GlcNAc(b1-4)GlcNAc
Summary of the method: as §1

[22] = biological target: Neu5Ac(a2-6)Gal(b1-4)GlcNAc(b1-3)Gal(b1-3)GlcNAc
Summary of the method: as §1

[23] = biological target: Neu5Ac(a2-6)Gal(b1-4)GlcNAc(b1-3)Gal(b1-4)GlcNAc
Summary of the method: as §1

[24] = biological target: Neu5Ac(a2-6)Gal(b1-4)GlcNAc(b1-3)Gal(b1-4)GlcNAc(b1-3)Gal(b1-4)GlcNAc
Summary of the method: as §1

[25] = biological target: Neu5Ac(a2-6)Gal(b1-4)GlcNAc(b1-3)Gal(b1-4)[Fuc(a1-3)]GlcNAc(b1-3)Gal(b1-4)[Fuc(a1-3)]GlcNAc
Summary of the method: as §1

[26] = biological target: Neu5Ac(a2-6)Gal(b1-4)GlcNAc(b1-3)GalNAc
Summary of the method: as §1

[27] = biological target: Neu5Ac(a2-6)Gal(b1-4)GlcNAc6S
Summary of the method: as §1

Neu5Ac(a2-6)GalNAc = biological target: Neu5Ac(a2-6)GalNAc
Summary of the method: as §1

[28] = biological target: Neu5Ac(a2-6)GalNAc(b1-4)GlcNAc
Summary of the method: as §1

[29] = biological target: Neu5Ac(a2-6)GlcNAc(b1-4)GlcNAc
Summary of the method: as §1

[30] = biological target: Neu5Ac(a2-6)GlcNAc(b1-4)GlcNAc(b1-4)GlcNAc
Summary of the method: as §1

Neu5Ac(a2-8)Neu5Ac = biological target: Neu5Ac(a2-8)Neu5Ac
Summary of the method: as §1

[31] = biological target: Neu5Ac(a2-8)Neu5Ac(a2-3)Gal(b1-4)Glc
Summary of the method: as §1

[32] = biological target: Neu5Ac(a2-8)Neu5Ac(a2-3)[GalNAc(b1-4)]Gal(b1-4)Glc
Summary of the method: as §1

[33] = biological target: Neu5Ac(a2-8)Neu5Ac(a2-8)Neu5Ac
Summary of the method: as §1

[34] = biological target: Neu5Ac(a2-8)Neu5Ac(a2-8)Neu5Ac(a2-3)Gal(b1-4)Glc
Summary of the method: as §1

[35] = biological target: Neu5Ac(a2-8)Neu5Ac(a2-8)Neu5Ac(a2-3)[GalNAc(b1-4)]Gal(b1-4)Glc
Summary of the method: as §1

[36] = biological target: Neu5Ac(a2-8)Neu5Ac(a2-8)Neu5Ac(a2-8)Neu5Ac(a2-3)[GalNAc(b1-4)]Gal(b1-4)Glc
Summary of the method: as §1

[37] = biological target: Neu5Ac(b2-6)Gal(b1-4)GlcNAc
Summary of the method: as §1

Neu5Ac(b2-6)GalNAc = biological target: Neu5Ac(b2-6)GalNAc
Summary of the method: as §1

[38] = biological target: Neu5Ac9Ac(a2-3)Gal(b1-3)GlcNAc
Summary of the method: as §1

[39] = biological target: Neu5Ac9Ac(a2-3)Gal(b1-4)GlcNAc
Summary of the method: as §1

[40] = biological target: Neu5Ac9Ac(a2-6)Gal(b1-4)GlcNAc
Summary of the method: as §1

[41] = biological target: Neu5Gc(a2-3)Gal(b1-3)GlcNAc
Summary of the method: as §1

[42] = biological target: Neu5Gc(a2-3)Gal(b1-3)[Fuc(a1-4)]GlcNAc
Summary of the method: as §1

Neu5Gc(a2-3)Gal(b1-4)Glc = biological target: Neu5Gc(a2-3)Gal(b1-4)Glc
Summary of the method: as §1

[43] = biological target: Neu5Gc(a2-3)Gal(b1-4)GlcNAc
Summary of the method: as §1

[44] = biological target: Neu5Gc(a2-3)Gal(b1-4)[Fuc(a1-3)]GlcNAc
Summary of the method: as §1

[45] = biological target: Neu5Gc(a2-6)Gal(b1-4)GlcNAc
Summary of the method: as §1

Neu5Gc(a2-6)GalNAc = biological target: Neu5Gc(a2-6)GalNAc
Summary of the method: as §1

[46] = biological target: Neu5Gc(b2-6)Gal(b1-4)GlcNAc
Summary of the method: as §1

B1: DETC sTCR (Mus musculus) (protein)
chain: LDVYLEPVAKTFTVVAGDPASFYCTVTGGDMKNYHMSWYKKNGTNALFLVYKLNSNSTDGGKSNLKGKINISKNQFILDIQKATMKDAGTYYCGSDIGGSSWDTRQMFFGTGIELFVEPKSQPPAKPSVFIMKNGTNVACLVKDFYPKEVTISLRSSKKIVEFDPAIVISPSGKYSAVKLGQYGDSNSVTCSVQHNSETVHSTDFEPYANSFNNEKLPEPENDTQISEPCSSADLVPRGSTTAPSAQLKKKLQALKKKNAQLKWKLQALKKKLAQHHHHHHDSWISQDQLSFTRRPNKTVHISCKLSGVPLHNTIVHWYQLKEGEPLRRIFYGSVKTYKQDKSHSRLEIDEKDDGTFYLIINNVVTSDEATYYCACWDSSGFHKVFAEGTKLIVIPSDKRLDADISPKPTIFLPSVAETNLHKTGTYLCLLEKFFPDVIRVYWKEKDGNTILDSQEGDTLKTNDTYMKFSWLTVPERAMGKEHRCIVKHENNKGGADQEIFFPSIKKVAVSTKPTTCSSADLVPRGSTTAPSAQLEKELQALEKENAQLEWELQALEKELAQLNDIFEAQKIEW
glycan array binding signal (z-score) [1]: 2.34 | glycan array binding signal (z-score) [2]: -0.339 | glycan array binding signal (z-score) [3]: 0.399 | glycan array binding signal (z-score) [4]: -0.629 | glycan array binding signal (z-score) [5]: -0.272 | glycan array binding signal (z-score) [6]: -0.056 | glycan array binding signal (z-score) (Neu5Ac(a2-3)GalNAc): -0.074 | glycan array binding signal (z-score) [7]: -0.407 | glycan array binding signal (z-score) [8]: 2.27 | glycan array binding signal (z-score) [9]: -0.551 | glycan array binding signal (z-score) [10]: 0.574 | glycan array binding signal (z-score) (Neu5Ac(a2-6)Gal): 0.295 | glycan array binding signal (z-score) (Neu5Ac(a2-6)Gal(b1-4)Glc): -0.57 | glycan array binding signal (z-score) [11]: -0.218 | glycan array binding signal (z-score) [12]: -0.505 | glycan array binding signal (z-score) [13]: -0.487 | glycan array binding signal (z-score) [14]: -0.244 | glycan array binding signal (z-score) [15]: -0.565 | glycan array binding signal (z-score) [16]: -0.499 | glycan array binding signal (z-score) [17]: -0.408 | glycan array binding signal (z-score) [18]: -0.588 | glycan array binding signal (z-score) [19]: -0.567 | glycan array binding signal (z-score) [20]: 0.085 | glycan array binding signal (z-score) [21]: -0.062 | glycan array binding signal (z-score) [22]: 0.384 | glycan array binding signal (z-score) [23]: 0.071 | glycan array binding signal (z-score) [24]: 1.72 | glycan array binding signal (z-score) [25]: -0.522 | glycan array binding signal (z-score) [26]: 1.06 | glycan array binding signal (z-score) [27]: 0.228 | glycan array binding signal (z-score) (Neu5Ac(a2-6)GalNAc): -0.193 | glycan array binding signal (z-score) [28]: -0.568 | glycan array binding signal (z-score) [29]: -0.355 | glycan array binding signal (z-score) [30]: 5.83 | glycan array binding signal (z-score) (Neu5Ac(a2-8)Neu5Ac): 1.06 | glycan array binding signal (z-score) [31]: -0.589 | glycan array binding signal (z-score) [32]: -0.554 | glycan array binding signal (z-score) [33]: -0.216 | glycan array binding signal (z-score) [34]: 1.88 | glycan array binding signal (z-score) [35]: 0.445 | glycan array binding signal (z-score) [36]: -0.568 | glycan array binding signal (z-score) [37]: 0.592 | glycan array binding signal (z-score) (Neu5Ac(b2-6)GalNAc): -0.773 | glycan array binding signal (z-score) [38]: -0.785 | glycan array binding signal (z-score) [39]: 0.262 | glycan array binding signal (z-score) [40]: -0.574 | glycan array binding signal (z-score) [41]: -0.599 | glycan array binding signal (z-score) [42]: 0.595 | glycan array binding signal (z-score) (Neu5Gc(a2-3)Gal(b1-4)Glc): 0.254 | glycan array binding signal (z-score) [43]: 0.873 | glycan array binding signal (z-score) [44]: -0.502 | glycan array binding signal (z-score) [45]: 0.806 | glycan array binding signal (z-score) (Neu5Gc(a2-6)GalNAc): -0.641 | glycan array binding signal (z-score) [46]: -0.565
